In PubChem BioAssay AID1346428 (National Center for Advancing Translational Sciences (NCATS), 2018):
The campaign covered roughly 48,000 compounds. About 1,200 (2.5%) were called active. Inconclusive results (about 2%) are left out.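 How the source made its calls: active means activation of at least 60% and not above a set upper limit (about 1 call in 100 departs from these limits); inconclusive means activation of 40% to 60%, or above that upper limit; inactive means activation under 40%.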 The list shows a part of the results.

biological target: Probable G-protein coupled receptor 32 (Homo sapiens) (UniProt O75388); test: qHTS for Agonists of Human Resolvin D1 Receptor DRV1; details: CHO-K1 GPR32 beta-arrestin PathHunter luminescence, 90 min; at 76.9 µM; active compounds read high; zero percent set by DMSO-only wells; further: 0% is about no effect
Sequence of UniProt O75388 (O75388 whole entry, looked up): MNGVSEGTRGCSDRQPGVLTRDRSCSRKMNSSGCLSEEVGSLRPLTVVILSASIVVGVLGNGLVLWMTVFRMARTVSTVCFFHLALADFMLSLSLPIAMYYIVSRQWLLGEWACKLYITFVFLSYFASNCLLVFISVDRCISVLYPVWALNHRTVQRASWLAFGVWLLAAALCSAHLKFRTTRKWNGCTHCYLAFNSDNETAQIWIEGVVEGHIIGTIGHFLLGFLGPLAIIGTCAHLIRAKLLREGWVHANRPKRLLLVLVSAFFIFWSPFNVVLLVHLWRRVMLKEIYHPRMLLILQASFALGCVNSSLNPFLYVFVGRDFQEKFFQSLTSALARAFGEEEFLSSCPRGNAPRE
Summary of the method: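 Readings come from a cell-based beta-arrestin complementation format: CHO-K1 GPR32 stable cells (2,500/well) treated 90 min with compounds, then beta-Gal substrate added for 1 h before chemiluminescence imaging.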

activation, inactive:
Cc1ccc(C)c(NC(=O)CSc2nc3ccccc3nc2N2CCOCC2)c1 -0.707%
CCSc1ccccc1C(=O)N1CCN(c2nc3ccccc3s2)CC1 27.7%
CCc1ccc(-c2nn(-c3ccc(OC)cc3)c3c2cnc2ccc(OC)cc23)cc1 -1.93%
CCN(CC)C(=O)c1c(NC(=O)c2ccccc2F)sc2c1CCC(C(C)(C)C)C2 (stereo unspecified) -33.9%
Cc1cc(C)c(NC(=O)c2cc(C)nc3c2c(C)nn3-c2cccc(F)c2)c(C)c1 -6.69%
Cc1cc2oc(C(=O)N(Cc3ccc(Cl)cc3)Cc3ccco3)c(C)c2cc1Cl -23.3%
COc1cc(NC(=O)CCn2nc(C)cc2C)cc(OC)c1OC 0.194%
CCCn1c(=O)sc2cc(NC(=O)c3ccccc3Cl)ccc21 32.6%
N[C@@H](CS(=O)O)C(=O)O 11.1%
O=C(CSc1nccn1Cc1ccc2c(c1)OCO2)Nc1ccccc1F -14.1%
COc1cccc(N2CCN(C(=O)c3cccn3-c3nnc(N4CCCCC4)s3)CC2)c1 -8.26%
O=C1CC(c2ccc(Cl)cc2)CC(=O)N1 -3.05%
COc1ccc(-c2cc(C(=O)Nc3ccc4c(c3)OCO4)no2)cc1 -5.4%
CCC1CCCCN1CCCNC(=O)c1cn(C)c2ccc(S(=O)(=O)N(C)C3CCCCC3)cc2c1=O (stereo unspecified) -10.9%
CC1CC(OC(=O)c2ccccc2O)CC(C)(C)C1 (stereo unspecified) -8.77%
Cc1ccc(-n2ncc3c(=O)n(Cc4cccc(Cl)c4)cnc32)cc1C 3.74%
Cc1ccc(CSc2nc3cccnc3n2Cc2ccc(C(=O)NC3CC3)cc2)cc1 1.87%
O=C(NCc1ccccc1)c1cccn1-c1nnc(N2CCCCC2)s1 -15.9%
CCc1cccc(NC(=O)C2CCN(S(=O)(=O)c3ccc(Br)s3)CC2)c1 -12.5%
COc1cc(OC)c(NC(=O)C2=C(C)C(=O)OC23CCN(C(C)=O)CC3)cc1Cl -2.69%
CCOc1ccccc1CNC(=O)c1cnn(-c2ccc(C)cc2)c1-n1cccc1 -13.3%
Cc1ccc(C)c(NC(=O)Nc2cc3c(cc2N2CCCCC2)n(C)c(=O)n3C)c1 -0.548%
Cc1ccc(NC(=O)Cn2cnc3c(oc4ccccc43)c2=O)cc1Cl 1.22%
COc1ccc(NC(=O)CCCOc2cc(=O)n(C)c3ccccc23)c(OC)c1 8.17%
COCCNC(=O)CSc1c(C)cnc2c1c(=O)n(C)c(=O)n2C 2.68%
C[C@@H](CN1CCC(Cc2ccccc2)CC1)[C@@H](O)c1ccc(O)cc1 -0.303%
Cn1c(NCc2cccc(Cl)c2)nc2ccccc21 -26.9%
CCCn1c2ccccc2c2cnn(CC(=O)NCCc3ccc(S(N)(=O)=O)cc3)c(=O)c21 2.95%
CCOc1ccc(NC(=O)c2cc3cc4ccc(C)cc4nc3o2)cc1 7.35%
CCN(C(=O)c1ccc(C(=O)N(CC)c2ccccc2C)cc1)c1ccccc1C -13.5%
C=Cc1ccc(CN2C(=O)N(c3ccc(C)c(C)c3)S(=O)(=O)c3ccccc32)cc1 -1.97%
Brc1cccc(-c2nnn3c2nc(NC2CCCCC2)c2ccccc23)c1 -7%
Cc1ccc(-n2c(=O)c3ccc(C(=O)NCc4ccco4)cc3n(Cc3ccccc3Cl)c2=O)cc1 -20.7%
CC1CCCCN1CCNC(=O)c1ccc(Cn2c(SCc3ccccc3)nc3cccnc32)cc1 (stereo unspecified) -14.2%
Cc1nn(-c2ccc(N3CCOCC3)nn2)c(C)c1CCC(=O)NCc1ccc(Cl)cc1 -26.4%
CCS(=O)(=O)c1ncc(Cl)c(C(=O)Nc2ccc(S(=O)(=O)N(C)c3ccccc3)cc2)n1 -29.1%
COc1ccc2nc3sc(C(=O)NCCc4ccc(Cl)cc4)cc3cc2c1 -1.2%
Cc1cccc(C)c1Nc1sc(C(=O)c2ccccc2)c(N)c1S(=O)(=O)c1ccccc1 -27.7%
O=C(O)c1ccc(NC(=O)c2ccc(Cl)c(S(=O)(=O)N3CCCCCC3)c2)cc1 14.6%
CN(C1CCCCC1)S(=O)(=O)c1ccc2c(c1)c(=O)c(C(=O)N1CCN(c3ccccc3)CC1)cn2C 38.1%
COC(=O)c1ccc(NC(=O)C(C)Sc2nc(=O)cc(N)n2CCc2ccccc2)cc1 (stereo unspecified) -5.11%
O=S(=O)(NCCS(=O)(=O)N1CCN(c2ccccc2)CC1)c1ccccc1 -1.79%
Cc1nc2c3ccccc3nc(NNC(=O)CCC(=O)O)n2n1 -11.3%
COc1ccc(CCNC(=O)c2ccc3c(c2)nc(C)n3-c2ccc(Br)cc2)cc1OC -2.89%
Cc1ccc(NC(=O)CN2C(=O)CCSc3ccccc32)c(C)c1 -5.29%
O=C(Nc1ccc(Cl)cc1Cl)c1cc(S(=O)(=O)NCc2ccc3c(c2)OCO3)ccc1F 49.4%
N#Cc1cc2nc(O)c(O)nc2cc1[N+](=O)[O-] 8.27%
Cc1ccc(Cn2c(CO)cnc2SCc2ccc(F)cc2)cc1 13.7%
Nc1ccc(S(=O)(=O)NCc2ccccc2)cc1 -8.11%
CN(C)C(N)=NCCC[C@H](N)C(=O)O 4.02%
Cc1ccccc1NC(=O)c1cc2c([nH]c1=O)CC(C)(C)CC2=O 8.55%
COc1ccccc1Cn1cc(C(=O)c2ccccc2)c(=O)c2cc(OC)c(OC)cc21 4.24%
COc1ccc(-c2cc(C(=O)Nc3cc(C(F)(F)F)ccc3Cl)no2)cc1 -5.76%
Cc1nn(CCC(=O)Nc2ccc(Cl)cc2)c(C)c1S(=O)(=O)N1CCCCC1 -3.44%
CCOc1ccc(C(=O)Nc2ccc(-c3cc4ccccc4oc3=O)cc2)cc1Br 10.8%
CN(C)c1ccc(CNC(=O)C2CCN(c3nnc(-n4cccc4)s3)CC2)cc1 9.49%
